Measurements published in publication PMC12136788.
The other results are listed elsewhere or left out.

B1: chr12:111868959:111868960:+_ENSMUSG00000018707_ENSMUST00000018851|mus_mus|FALSE|FALSE (ssRNA)
RNA: GGGAGUUCUACAGUCCGACGAUCCAGAGUGAGCCACUCAUUGAUUUUGGGGUGUUCAGUGAUGGACACUGGAGUUUUAAACAUAACCUCCUCCCCUUCUCGGGAUGAGAUGCCGAGGACCACAGAGUUAUCCUCAUUUAAGAUCAACAGAGGAUUGAGCAUCA
B2: 10421687_10422949_824_3pUTR_ENSMUSG00000022503_ENSMUST00000023146|mouse|control|control (ssRNA)
RNA: GGGAGUUCUACAGUCCGACGAUCGACAAAAAAAGACUGGCCUUUGUCACAGCUCUUGCCUAUGUGUGGAUCCAGCGGCACUUUGCCCAGAAGUGGAAUCCUCAGAUCCUGGCACAUGGCCUCUGCACCCCCAGUCGUGGGAGGCAACAGAGGAUUGAGCAUCA
B3: chr4:76721835:76721836:+_ENSG00000138768_ENST00000264904|hu_mus|hu_hu_hu_mus_True|18_98 (ssRNA)
RNA: GGGAGUUCUACAGUCCGACGAUCGUUUGGCUGGGGUUCUGAGAUGCCUCUGGAAUAUAACUCAUGUUUGCUAAUAAAUCCUAGUUUCUCUAUGAAAUUCUCUUUGCCAAUCCUCUUUCAAUCAGUUUGCUUUAGUUUCUCUUUCAACAGAGGAUUGAGCAUCA
B4: chr3:176767854:176767855:-_ENSG00000177565_ENST00000430069|hu_hu|hu_hu_hu_mus_False|78_98 (ssRNA)
RNA: GGGAGUUCUACAGUCCGACGAUCGACAUCCUUGUUACUUGGAACAUCCUGCCCUCCUUCUCGUAUACAGUGUCUAAGCACGAGCUGCGUAGGGCCACUCGUGCUGUUCUCACUGAGGUUCCAGAUUCUUGCCGUGGAGUCUCCCAACAGAGGAUUGAGCAUCA
B5: chr7:135612270:135612271:-_ENSG00000105887_ENST00000393085|hu_mus|hu_hu_hu_mus_False|98_98 (ssRNA)
RNA: GGGAGUUCUACAGUCCGACGAUCGUUUUUUUCUGAGUAAGUAUUACGUACUUCAGUGGAAAACAAAACUUAACCUUUUAUUAAUGCGUGUUGUACCAAAAGCAGACAUUUUAGCUUCAUUUAUUCAAAAAUAUUAACAUUAAGCAACAGAGGAUUGAGCAUCA
B6: chr2:48026839:48026840:+_ENSG00000116062_ENST00000540021|hu_hu|hu_hu_hu_mus_False|1_28 (ssRNA)
RNA: GGGAGUUCUACAGUCCGACGAUCAUAGUGAGCCACUAGCGUCCUAAAUCUGGAACAGUGGCGGUCAUCCGAAAACUGGCCGAUGAAAAACUUGCCCAGUGAAGUGUCAACAAAGCAAACACCAUACACACGAGUGUGGCCAGACAACAGAGGAUUGAGCAUCA
B7: chr11:115359251:115359252:-_ENSMUSG00000020737_ENSMUST00000021083|mus_hu|FALSE|FALSE (ssRNA)
RNA: GGGAGUUCUACAGUCCGACGAUCUAUUUCUUCUUAAAAACACAGUACUAAGUGUCACAAAGCUUUCCCUCCAAUCUACUACUAGAAAACACUCAUGCCAUGGCCCACAGACCCAAGAGUCAAGGACAGAGAGAAACCUGUUCUCAACAGAGGAUUGAGCAUCA
B8: chr10:131959147:131959148:+_ENSG00000108010_ENST00000331244|hu_hu|FALSE|FALSE (ssRNA)
RNA: GGGAGUUCUACAGUCCGACGAUCCAAUUUCUUCAAGCGAAGGUUGAGAUCUUCUUUAAGAUGUUCAUUAGCGCUGGGUAGGAAGGAGCCACUAGAUGCAUGUCGCUGAACUUUUUUGGUCAACUCUGGGGCAUGUGCACCAUCCAACAGAGGAUUGAGCAUCA
B9: chr8:22473583:22473584:+_ENSG00000158941_ENST00000389279|hu_mus|motif|central (ssRNA)
RNA: GGGAGUUCUACAGUCCGACGAUCAGGUUCAGGAGGAGACACAACUUUUUCUGGAAGGCUCAGCAGCGUCUUAUAAAUUCGGUAGCCAAAAUCCCUCUGCAGCAUCUCUACAAACAGCUCAGCCAGCACCACUACCUCAAAAGACAACAGAGGAUUGAGCAUCA
B10: chr5:24309477:24309478:-_ENSMUSG00000028945_ENSMUST00000030787|mus_mus|FALSE|FALSE (ssRNA)
RNA: GGGAGUUCUACAGUCCGACGAUCGCAGUUUGCUUCCUCAGGUGGAAUAUAUCCCCAGUGUCCGCAGGCUCUGCAGCAGAAUUGUCACAUCACCGAGCACGAAGACUUUCCUUGUGAAGCUGCUCCAUCAAUCUUUUCUGCUUCCAACAGAGGAUUGAGCAUCA
B11: chr21:33032072:33032073:+_ENSG00000142168_ENST00000270142|hu_hu|motif|central (ssRNA)
RNA: GGGAGUUCUACAGUCCGACGAUCUGCACUGGGCCGUCGCCCUUCAGCACGCACACGGCCUUCGUCGCCAUAACUCGCGGGGCCACGCCGAGGUCCUGGUUCCGAGGACUGCAACGGAAACCCCAGACGCUGCAGGAGACUACGCAACAGAGGAUUGAGCAUCA
B12: 49195773_49196266_1005_3pUTR_ENSG00000196396_ENST00000371621|human|control|control (ssRNA)
RNA: GGGAGUUCUACAGUCCGACGAUCCUCGUGGGAAAGCUCCUUCCACUGAUCCUGCACGGAAGAGUCCCCCAUGAUGAAUUUGGCACCUUCGAUCACAGCCAGGUAGGAGAAGCGCAGCUGGUCGGCUGUCUGGAUCAGCCCCAUCAACAGAGGAUUGAGCAUCA
B13: chr5:80785125:80785126:-_ENSG00000145687_ENST00000509013|hu_hu|FALSE|FALSE (ssRNA)
RNA: GGGAGUUCUACAGUCCGACGAUCUGGCUGACUUCCUGGGACACCUCCAAGUGCCUGAAAGAACCCUGGUGGUACAGGACCUACUGGCAUGCCAUCUCCUGGGGGAAUGUUUCCUAGCACUGGACUGGGAGCUGCUGCAGCACUCAACAGAGGAUUGAGCAUCA
B14: chr14:59854306:59854307:+_ENSMUSG00000035469_ENSMUST00000043227|mus_mus|motif|central (ssRNA)
RNA: GGGAGUUCUACAGUCCGACGAUCUAAGAAAUGGACUCACAAGAAGCAAAUAUCCUUCAUAUAUUCCUACAGAGCACUGUCGGUGGUGUGGGGCUUUACCUGCAGAUCACCGCACCCACAGUGCCCCAGAGCUCUCACACCUAGCAACAGAGGAUUGAGCAUCA
B15: 13520199_13520319_5787_CDS_ENSMUSG00000020576_ENSMUST00000042953|mouse|control|control (ssRNA)
RNA: GGGAGUUCUACAGUCCGACGAUCAGCCAAGGCAUCUGGAUAGGUGGCCUGAGAACCACGACCUUCUUGGGGGUCCUCUUCUGAAUUUCUUUUCCUUGGCUUCUCUAUGAAAUGCUUGAUUGUCUUAAUGGCCUUUCUGGUCAUCAACAGAGGAUUGAGCAUCA
B16: chrX:71099370:71099371:-_ENSMUSG00000031391_ENSMUST00000102871|mus_hu|motif|central (ssRNA)
RNA: GGGAGUUCUACAGUCCGACGAUCUUUAUUUUUCCUGGGAUGGGUUCAUCAAAGCUAAUUGCUAUCAAUCCUAGAAACCACCGGGGGACUCAGACAUCUGCCUACACACUAGUGGCGUAAAGGGAAGGACAGGGGUACAAACUUCAACAGAGGAUUGAGCAUCA
B17: chr11:86935578:86935579:+_ENSMUSG00000020492_ENSMUST00000020794|mus_hu|FALSE|FALSE (ssRNA)
RNA: GGGAGUUCUACAGUCCGACGAUCUAAUCUCUCUCAUGAAAGAUAUCAUUAUCCAGUCAUUGAAGCCAAACCCCCUUCACCAGCCCCCAAUCUCUAGACAUCAAGGGUUAACAAGACAUCUUCCUAAAUUUCUCCGGAAUUAAGCAACAGAGGAUUGAGCAUCA
B18: chr4:82449818:82449819:-_ENSMUSG00000028403_ENSMUST00000030110|mus_hu|motif|central (ssRNA)
RNA: GGGAGUUCUACAGUCCGACGAUCUACAUUUCUAUGUUUUGUAAUAAAUUGGUAAUUUCAAAGUAACAGCUUUUCCAAUUCGGAGGAAUUACUCUGCCAAAAUAAGGUUUAAAAUAAAAUACAUAAAAUGGCUUAGUUUAUCCUCAACAGAGGAUUGAGCAUCA
B19: chr2:198351390:198351391:-_ENSG00000144381_ENST00000345042|hu_hu|hu_hu_hu_mus_False|38_88 (ssRNA)
RNA: GGGAGUUCUACAGUCCGACGAUCUCAUUCCCACCCUCCACAGAAAGGCUGCUUAACAACUCUCAUGUGGUGACACAGCGCUACAGUCCUGAUGCUCACAGAAUAGUAGAGAUGCCUCAGUGAUUUAAGUUGAAAGCAGGACACCAACAGAGGAUUGAGCAUCA
B20: 112498940_112499737_1378_CDS_ENSMUSG00000021277_ENSMUST00000021706|mouse|control|control (ssRNA)
RNA: GGGAGUUCUACAGUCCGACGAUCCAUCUGGUCAUGCCGGCUCAGCUGGGACUCCAGCAAGCCUGUGUUGCGAGCCGCCUGCCCCGCACUUUUGUCUACGCUCUCCAGCUCAGUCACUCGGUUCUGGAGGGACUCCACACUGCUCAACAGAGGAUUGAGCAUCA
B21: chr2:66073698:66073699:-_ENSMUSG00000034848_ENSMUST00000102718|mus_mus|FALSE|FALSE (ssRNA)
RNA: GGGAGUUCUACAGUCCGACGAUCCUGCUGGAAUUCACUGAAGAACUCCAACUGCUGGUCUGCAUCUUGCAACUGCCCCUCUAUUAACUGACAUCGGAUAAGUCCGGUGACAGCAGAGAUGUUGCUCUCAUUCAGCGUCAUGGCCAACAGAGGAUUGAGCAUCA
B22: 139257338_139257458_3966_3pUTR_ENSG00000064393_ENST00000406875|human|control|control (ssRNA)
RNA: GGGAGUUCUACAGUCCGACGAUCGGUUUUUUGUUAUUGACUUUUUUUUUUUCCUUUUUCUUUUUUAAAAUAAAAACCAUAGAUUUCCCACCCUCUUUAAUCCCUUCCUUUUAAAAAUGUUCUCUUCUCUGCUCUACGUCCUCCCAACAGAGGAUUGAGCAUCA

Target: T1, UNK ZnF1-3 (human, UniProt Q9C0B0 31-174)
T1 sequence: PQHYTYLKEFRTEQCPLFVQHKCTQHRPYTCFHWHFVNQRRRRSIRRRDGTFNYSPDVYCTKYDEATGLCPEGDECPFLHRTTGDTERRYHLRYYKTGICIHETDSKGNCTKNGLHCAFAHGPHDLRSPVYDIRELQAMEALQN
Assay: nsRBNS (natural sequence RNA bind-n-seq); RBNS binding buffer (assumed for nsRBNS): 25 mM Tris pH 7.5, 150 mM KCl, 3 mM MgCl2, 0.01% Triton X-100, 500 ug/ml BSA, 20 U/ml SUPERase-In, 4 C; UNK is unkempt and MSI1 is Musashi-1; names of the RNAs are library labels; protein concentration not given here; high values mean tight binding

| Binder | binding signal [enrichment R] |
| --- | --- |
| B1 | 0.847 |
| B2 | 1.06 |
| B3 | 0.489 |
| B4 | 0.495 |
| B5 | 1.16 |
| B6 | 1.24 |
| B7 | 1.29 |
| B8 | 1.18 |
| B9 | 1.82 |
| B10 | 0.883 |
| B11 | 0.62 |
| B12 | 1.18 |
| B13 | 0.936 |
| B14 | 0.65 |
| B15 | 0.402 |
| B16 | 0.933 |
| B17 | 1.21 |
| B18 | 0.745 |
| B19 | 1.26 |
| B20 | 0.8 |
| B21 | 0.875 |
| B22 | 1.43 |
